Reference: the supplement of paper PMC8728848
Some of the results follow.

What was measured:
Assay in all cases: glycan array binding signal (z-score within array); higher = stronger binding
Details in all cases: glycan notation: IUPAC condensed, linker removed
[1] = target: GlcNAc(b1-2)Gal(b1-3)GalNAc
How it was run: (§1)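 Glycan array binding is given as a within-array Z-score, which can be read as non-binding when negative. The arrays, 3228 of them, came from the Consortium for Functional Glycomics database and were retained only where the protein sequence was available. Z-scores were averaged across arrays of the same protein sequence at different concentrations or buffers and across linkers.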

[2] = target: GlcNAc(b1-2)Man(a1-3)[GlcNAc(b1-2)Man(a1-6)]Man(b1-4)GlcNAc(b1-4)GlcNAc
How it was run: as §1

[3] = target: GlcNAc(b1-2)Man(a1-3)[GlcNAc(b1-2)Man(a1-6)]Man(b1-4)GlcNAc(b1-4)[Fuc(a1-6)]GlcNAc
How it was run: as §1

[4] = target: GlcNAc(b1-2)Man(a1-3)[GlcNAc(b1-4)][GlcNAc(b1-2)Man(a1-6)]Man(b1-4)GlcNAc(b1-4)GlcNAc
How it was run: as §1

[5] = target: GlcNAc(b1-2)Man(a1-3)[GlcNAc(b1-4)][GlcNAc(b1-2)Man(a1-6)]Man(b1-4)GlcNAc(b1-4)[Fuc(a1-6)]GlcNAc
How it was run: as §1

[6] = target: GlcNAc(b1-2)[GlcNAc(b1-4)]Man(a1-3)[GlcNAc(b1-2)Man(a1-6)]Man(b1-4)GlcNAc(b1-4)GlcNAc
How it was run: as §1

[7] = target: GlcNAc(b1-2)[GlcNAc(b1-4)]Man(a1-3)[GlcNAc(b1-4)][GlcNAc(b1-2)Man(a1-6)]Man(b1-4)GlcNAc(b1-4)GlcNAc
How it was run: as §1

[8] = target: GlcNAc(b1-2)[GlcNAc(b1-4)]Man(a1-3)[GlcNAc(b1-4)][GlcNAc(b1-2)[GlcNAc(b1-6)]Man(a1-6)]Man(b1-4)GlcNAc(b1-4)GlcNAc
How it was run: as §1

[9] = target: GlcNAc(b1-2)[GlcNAc(b1-4)]Man(a1-3)[GlcNAc(b1-4)][GlcNAc(b1-2)[GlcNAc(b1-6)]Man(a1-6)]Man(b1-4)GlcNAc(b1-4)[Fuc(a1-6)]GlcNAc
How it was run: as §1

[10] = target: GlcNAc(b1-2)[GlcNAc(b1-6)]Man(a1-6)[GlcNAc(b1-2)Man(a1-3)]Man(b1-4)GlcNAc(b1-4)GlcNAc
How it was run: as §1

[11] = target: GlcNAc(b1-2)[GlcNAc(b1-6)]Man(a1-6)[GlcNAc(b1-2)Man(a1-3)]Man(b1-4)GlcNAc(b1-4)[Fuc(a1-6)]GlcNAc
How it was run: as §1

[12] = target: GlcNAc(b1-2)[GlcNAc(b1-6)]Man(a1-6)[GlcNAc(b1-4)][GlcNAc(b1-2)Man(a1-3)]Man(b1-4)GlcNAc(b1-4)GlcNAc
How it was run: as §1

GlcNAc(b1-3)Fuc = target: GlcNAc(b1-3)Fuc
How it was run: as §1

GlcNAc(b1-3)Gal = target: GlcNAc(b1-3)Gal
How it was run: as §1

[13] = target: GlcNAc(b1-3)Gal(b1-3)GalNAc
How it was run: as §1

GlcNAc(b1-3)Gal(b1-4)Glc = target: GlcNAc(b1-3)Gal(b1-4)Glc
How it was run: as §1

[14] = target: GlcNAc(b1-3)Gal(b1-4)GlcNAc
How it was run: as §1

[15] = target: GlcNAc(b1-3)Gal(b1-4)GlcNAc(b1-2)Man(a1-3)[GlcNAc(b1-3)Gal(b1-4)GlcNAc(b1-2)Man(a1-6)]Man(b1-4)GlcNAc(b1-4)GlcNAc
How it was run: as §1

[16] = target: GlcNAc(b1-3)Gal(b1-4)GlcNAc(b1-2)Man(a1-3)[GlcNAc(b1-3)Gal(b1-4)GlcNAc(b1-2)Man(a1-6)]Man(b1-4)GlcNAc(b1-4)[Fuc(a1-6)]GlcNAc
How it was run: as §1

[17] = target: GlcNAc(b1-3)Gal(b1-4)GlcNAc(b1-2)[GlcNAc(b1-3)Gal(b1-4)GlcNAc(b1-6)]Man(a1-6)[GlcNAc(b1-3)Gal(b1-4)GlcNAc(b1-2)Man(a1-3)]Man(b1-4)GlcNAc(b1-4)GlcNAc
How it was run: as §1

[18] = target: GlcNAc(b1-3)Gal(b1-4)GlcNAc(b1-3)Gal(b1-4)GlcNAc
How it was run: as §1

[19] = target: GlcNAc(b1-3)Gal(b1-4)GlcNAc(b1-3)Gal(b1-4)GlcNAc(b1-2)Man(a1-3)[GlcNAc(b1-3)Gal(b1-4)GlcNAc(b1-3)Gal(b1-4)GlcNAc(b1-2)Man(a1-6)]Man(b1-4)GlcNAc(b1-4)GlcNAc
How it was run: as §1

[20] = target: GlcNAc(b1-3)Gal(b1-4)GlcNAc(b1-3)Gal(b1-4)GlcNAc(b1-2)Man(a1-3)[GlcNAc(b1-3)Gal(b1-4)GlcNAc(b1-3)Gal(b1-4)GlcNAc(b1-2)Man(a1-6)]Man(b1-4)GlcNAc(b1-4)[Fuc(a1-6)]GlcNAc
How it was run: as §1

[21] = target: GlcNAc(b1-3)Gal(b1-4)GlcNAc(b1-3)Gal(b1-4)GlcNAc(b1-2)[GlcNAc(b1-3)Gal(b1-4)GlcNAc(b1-3)Gal(b1-4)GlcNAc(b1-6)]Man(a1-6)[GlcNAc(b1-3)Gal(b1-4)GlcNAc(b1-3)Gal(b1-4)GlcNAc(b1-2)Man(a1-3)]Man(b1-4)GlcNAc(b1-4)[Fuc(a1-6)]GlcNAc
How it was run: as §1

[22] = target: GlcNAc(b1-3)Gal(b1-4)GlcNAc(b1-3)Gal(b1-4)GlcNAc(b1-3)Gal(b1-4)GlcNAc(b1-2)Man(a1-3)[GlcNAc(b1-3)Gal(b1-4)GlcNAc(b1-3)Gal(b1-4)GlcNAc(b1-3)Gal(b1-4)GlcNAc(b1-2)Man(a1-6)]Man(b1-4)GlcNAc(b1-4)GlcNAc
How it was run: as §1

[23] = target: GlcNAc(b1-3)Gal(b1-4)GlcNAc(b1-3)Gal(b1-4)GlcNAc(b1-3)Gal(b1-4)GlcNAc(b1-2)Man(a1-3)[GlcNAc(b1-3)Gal(b1-4)GlcNAc(b1-3)Gal(b1-4)GlcNAc(b1-3)Gal(b1-4)GlcNAc(b1-2)Man(a1-6)]Man(b1-4)GlcNAc(b1-4)[Fuc(a1-6)]GlcNAc
How it was run: as §1

[24] = target: GlcNAc(b1-3)Gal(b1-4)GlcNAc(b1-3)Gal(b1-4)GlcNAc(b1-3)Gal(b1-4)GlcNAc(b1-2)[GlcNAc(b1-3)Gal(b1-4)GlcNAc(b1-3)Gal(b1-4)GlcNAc(b1-3)Gal(b1-4)GlcNAc(b1-6)]Man(a1-6)[GlcNAc(b1-3)Gal(b1-4)GlcNAc(b1-3)Gal(b1-4)GlcNAc(b1-3)Gal(b1-4)GlcNAc(b1-2)Man(a1-3)]Man(b1-4)GlcNAc(b1-4)[Fuc(a1-6)]GlcNAc
How it was run: as §1

[25] = target: GlcNAc(b1-3)Gal(b1-4)GlcNAc(b1-3)Gal(b1-4)GlcNAc(b1-3)Gal(b1-4)GlcNAc(b1-3)Gal(b1-4)GlcNAc(b1-2)Man(a1-3)[GlcNAc(b1-3)Gal(b1-4)GlcNAc(b1-3)Gal(b1-4)GlcNAc(b1-3)Gal(b1-4)GlcNAc(b1-3)Gal(b1-4)GlcNAc(b1-2)Man(a1-6)]Man(b1-4)GlcNAc(b1-4)GlcNAc
How it was run: as §1

[26] = target: GlcNAc(b1-3)Gal(b1-4)GlcNAc(b1-3)Gal(b1-4)GlcNAc(b1-3)Gal(b1-4)GlcNAc(b1-3)Gal(b1-4)GlcNAc(b1-2)Man(a1-3)[GlcNAc(b1-3)Gal(b1-4)GlcNAc(b1-3)Gal(b1-4)GlcNAc(b1-3)Gal(b1-4)GlcNAc(b1-3)Gal(b1-4)GlcNAc(b1-2)Man(a1-6)]Man(b1-4)GlcNAc(b1-4)[Fuc(a1-6)]GlcNAc
How it was run: as §1

[27] = target: GlcNAc(b1-3)Gal(b1-4)GlcNAc(b1-3)Gal(b1-4)GlcNAc(b1-3)Gal(b1-4)GlcNAc(b1-3)Gal(b1-4)GlcNAc(b1-2)[GlcNAc(b1-3)Gal(b1-4)GlcNAc(b1-3)Gal(b1-4)GlcNAc(b1-3)Gal(b1-4)GlcNAc(b1-3)Gal(b1-4)GlcNAc(b1-6)]Man(a1-6)[GlcNAc(b1-3)Gal(b1-4)GlcNAc(b1-3)Gal(b1-4)GlcNAc(b1-3)Gal(b1-4)GlcNAc(b1-3)Gal(b1-4)GlcNAc(b1-2)Man(a1-3)]Man(b1-4)GlcNAc(b1-4)[Fuc(a1-6)]GlcNAc
How it was run: as §1

[28] = target: GlcNAc(b1-3)Gal(b1-4)GlcNAc(b1-3)Gal(b1-4)GlcNAc(b1-3)GalNAc
How it was run: as §1

[29] = target: GlcNAc(b1-3)Gal(b1-4)GlcNAc(b1-3)GalNAc
How it was run: as §1

[30] = target: GlcNAc(b1-3)Gal(b1-4)GlcNAc(b1-3)[GlcNAc(b1-3)Gal(b1-4)GlcNAc(b1-3)]GalNAc
How it was run: as §1

[31] = target: GlcNAc(b1-3)Gal(b1-4)GlcNAc(b1-6)[Gal(b1-3)]GalNAc
How it was run: as §1

[32] = target: GlcNAc(b1-3)Gal(b1-4)GlcNAc(b1-6)[GlcNAc(b1-3)Gal(b1-3)]GalNAc
How it was run: as §1

[33] = target: GlcNAc(b1-3)Gal(b1-4)GlcNAc(b1-6)[GlcNAc(b1-3)]Gal(b1-4)GlcNAc
How it was run: as §1

GlcNAc(b1-3)GalNAc = target: GlcNAc(b1-3)GalNAc
How it was run: as §1

GlcNAc(b1-3)Man = target: GlcNAc(b1-3)Man
How it was run: as §1

[34] = target: GlcNAc(b1-3)[GlcNAc(b1-4)][GlcNAc(b1-6)]GlcNAc
How it was run: as §1

[35] = target: GlcNAc(b1-3)[GlcNAc(b1-6)]Gal(b1-4)GlcNAc
How it was run: as §1

[36] = target: GlcNAc(b1-3)[GlcNAc(b1-6)]GalNAc
How it was run: as §1

[37] = target: GlcNAc(b1-4)Gal(b1-4)GlcNAc
How it was run: as §1

GlcNAc(b1-4)GlcNAc = target: GlcNAc(b1-4)GlcNAc
How it was run: as §1

[38] = target: GlcNAc(b1-4)GlcNAc(b1-4)GlcNAc
How it was run: as §1

[39] = target: GlcNAc(b1-4)GlcNAc(b1-4)GlcNAc(b1-4)GlcNAc(b1-4)GlcNAc
How it was run: as §1

B1: Pwp3 (Candida glabrata) (protein)
chain: MGSSHHHHHHSSGLVPRGSHMASKNPVDFTTVCQFPDNFSKKPGFLATTARLGLWITGNSYKELLNYPGTFTLTTQQASTTTPNIQLRGTDLFTTIYGLTVYPLYLLVELQGYFVPTQSGMYTFSLTGSDDAAIIFIGNPSTFPCDAFKTWPQATANDITVTDSINPSRTLYMVKGVAYPLRIAYYNGLGNGVLNAAFTDPSGTKRTDWNGYIWQYDQCSTCTYK
[1]
  glycan array binding signal (z-score): -0.581
[2]
  glycan array binding signal (z-score): -0.52
[3]
  glycan array binding signal (z-score): -0.209
[4]
  glycan array binding signal (z-score): -0.14
[5]
  glycan array binding signal (z-score): -0.195
[6]
  glycan array binding signal (z-score): -0.427
[7]
  glycan array binding signal (z-score): -0.375
[8]
  glycan array binding signal (z-score): -0.173
[9]
  glycan array binding signal (z-score): 0.512
[10]
  glycan array binding signal (z-score): -0.48
[11]
  glycan array binding signal (z-score): -0.285
[12]
  glycan array binding signal (z-score): -0.216
GlcNAc(b1-3)Fuc
  glycan array binding signal (z-score): 0.535
GlcNAc(b1-3)Gal
  glycan array binding signal (z-score): -0.332
[13]
  glycan array binding signal (z-score): -0.399
GlcNAc(b1-3)Gal(b1-4)Glc
  glycan array binding signal (z-score): -1.47
[14]
  glycan array binding signal (z-score): -0.334
[15]
  glycan array binding signal (z-score): -0.47
[16]
  glycan array binding signal (z-score): -0.546
[17]
  glycan array binding signal (z-score): 3.27
[18]
  glycan array binding signal (z-score): -0.216
[19]
  glycan array binding signal (z-score): -0.047
[20]
  glycan array binding signal (z-score): -0.151
[21]
  glycan array binding signal (z-score): 1.95
[22]
  glycan array binding signal (z-score): -0.514
[23]
  glycan array binding signal (z-score): 0.739
[24]
  glycan array binding signal (z-score): 1.66
[25]
  glycan array binding signal (z-score): -0.439
[26]
  glycan array binding signal (z-score): 0.014
[27]
  glycan array binding signal (z-score): 4.05
[28]
  glycan array binding signal (z-score): -0.648
[29]
  glycan array binding signal (z-score): -0.715
[30]
  glycan array binding signal (z-score): 0.29
[31]
  glycan array binding signal (z-score): -0.326
[32]
  glycan array binding signal (z-score): -0.655
[33]
  glycan array binding signal (z-score): -0.096
GlcNAc(b1-3)GalNAc
  glycan array binding signal (z-score): -0.946
GlcNAc(b1-3)Man
  glycan array binding signal (z-score): -0.51
[34]
  glycan array binding signal (z-score): -0.607
[35]
  glycan array binding signal (z-score): -0.126
[36]
  glycan array binding signal (z-score): 0.246
[37]
  glycan array binding signal (z-score): -0.296
GlcNAc(b1-4)GlcNAc
  glycan array binding signal (z-score): -0.538
[38]
  glycan array binding signal (z-score): -0.649
[39]
  glycan array binding signal (z-score): -0.604
